Reference: the supplement of paper PMC7826260
The other results are listed elsewhere or left out. The data describe in vitro nicking of single-stranded DNA by Rep domains (3 µM enzyme, 1 h, 37 °C); shown is the middle of each 90-letter strand. Numbers give uncut DNA relative to the enzyme-free pool, as log2; more negative means more cut, near 0 not cut, and no call is made. Counts are relative to all reads; uncut strands gain when others are lost, and binding without cutting may add a little.

Tested on: T1, Rep nickase domain of tomato golden mosaic virus
T1 sequence (Rep 1-124, printed without the tag): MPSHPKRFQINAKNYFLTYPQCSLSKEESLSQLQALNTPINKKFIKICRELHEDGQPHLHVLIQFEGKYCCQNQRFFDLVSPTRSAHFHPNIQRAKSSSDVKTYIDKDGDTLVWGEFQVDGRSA
Assay: uncleaved DNA left, log2 of reads against the no-enzyme library (log2 ratio); higher = less cleavage (more negative = more Rep cleavage of the k-mer); sequences stand for … in CTCGTCCG…ACCGGAGA
Method: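 A pool of 90-nt single-stranded DNAs with seven random bases just before the constant AC of the nick site (name = the seven bases) was cut by 3 µM recombinant His6-SUMO-tagged Rep nickase domain (300 nM DNA, 50 mM HEPES pH 8.0, 50 mM NaCl, 1 mM MnCl2, 1 h, 37 °C, three replicates). Uncut DNA was amplified and sequenced.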

Sequence	uncleaved DNA left (log2)
CCAGGCG	0.0194
GGCGTCG	-0.0346
CCTACTC	-0.192
ACAACAG	0.0838
ATACAGG	0.0442
AGCAGGT	0.0497
ATGTATC	-0.073
ACCAGCC	0.0789
CATGATG	0.00148
TTTCTTT	-0.0851
TCTACCC	-0.263
GACTCCC	-0.0318
GGCGTCT	0.0679
TATATTG	-0.0534
GGACGCT	-0.178
GTGACAT	0.128
CCGTTTC	-0.179
GGTGCCG	-0.122
CGGGTCA	0.027
ACGACAG	0.187

Sequence	uncleaved DNA left (log2)
GTATTCT	0.0642
CGTTTTC	-0.113
TAAGGCT	-0.09
TGGTCCA	-0.109
AATGAAG	0.0359
GGAGACA	0.172
TCACCGT	-0.105
TGTGTTT	-0.0743
AGGGATA	0.229
GGTAGTT	-0.151
GGCCGAG	0.222
AGCACCT	-0.0338
CTTCCGA	-0.0844
CGGGAAC	-0.0127
AATTTGG	-0.0321
ATTGCGC	-0.0576
ACTGACG	0.0623
TGTTCGG	0.0091
TATAGCT	-0.0837
ATCCCCA	-0.217
